Laboratory results from PubChem BioAssay AID902 (National Center for Advancing Translational Sciences (NCATS), 2007).
Several values for one entry are separate records, joined by “and”; a condition that tells them apart may be missing. Equal entries are not always repeated. Hit rate of the full screen: of about 130,000 compounds, about 1,900 (1.5%) were called active. Inconclusive means that the source gave no clear call. Such entries were picked first, then a sample of the others. Calls come from the whole dose curve; as a rule, active = well fitted cell-killing curve with a large enough effect; inconclusive = small, poorly fitted or top-dose-only effect; inactive = no such curve, though single readings can be large or run the other way. Potencies of inconclusive entries are doubtful fits and often do not repeat. Some structures have more than one record in an assay (separate samples or runs), and their calls can disagree.

Experiment: qHTS Screen for Compounds that Selectively Target Cancer Cells with p53 Mutations: Cytotoxicity of p53ts Cells at the Nonpermissive Temperature; note: nearly all actives have a fitted effect of over 55% in size
Settings: H1299-p53A138V viability at 39C, ATP luminescence, 24 h; activity change, negative = cell killing: at 46.1 µM (top of the series)
% is set by controls: 0 for no effect and ±100 for the full control effect; potency is the fitted concentration of half-maximal effect; tags give direction and shape of the fitted curve.

Q: With `O=C(Nc1ccccc1Cl)N1CCC2(CC1)Oc1ccccc1C(=O)N2Cc1ccc(F)cc1` as the compound, how does the “activity change, negative = cell killing” value read?
A: The value was inactive: -12.4%.

Q: With `CCCCN(C)C(=O)CSc1c2c(nc3ccc(Cl)cc13)CCCC2` as the compound, how does the Potency read?
A: The Potency was inconclusive: 20 µM [cytotoxic, single point].

Q: For `O=C(c1cccs1)N1CCn2c1nc1ccccc12`, which Potency is on record?
A: The Potency was inconclusive: 10 µM [cytotoxic, partial curve].

Q: Which Potency does the source give for `CCc1ccccc1NC(=O)Cn1c(=O)n(CCc2ccccc2)c(=O)c2sc3ccccc3c21` here?
A: Its Potency is active: 10 µM.

Q: With `CO[C@]12C(COC(N)=O)C3=C(C(=O)C(C)=C(N)C3=O)N1CC1NC12` (stereo not given in full) as the compound, how does the Potency read?
A: Its Potency is inconclusive: 12.6 µM [cytotoxic, partial curve].

Q: For `Cc1cc(C)c2c(n1)nn1c(C)c(CCC(=O)Nc3cccc(C)c3C)c(C)nc21`, which Potency is on record?
A: Its Potency is inconclusive: 20 µM [cytotoxic, partial curve].

Q: For `S=C(S)O[C@@H]1C[C@@H]2C[C@H]1[C@@H]1CCC[C@H]21`, which Potency is on record?
A: Its Potency is inconclusive: 25.1 µM [cytotoxic, partial curve, poor fit] and inconclusive: 31.6 µM [cytotoxic, single point].

Q: For `CCN(CCCNC(=O)c1cc2c(=O)n(C)c3ccccc3c2s1)c1ccccc1`, which Potency is on record?
A: The Potency was inconclusive: 6.31 µM [cytotoxic, partial curve].

Q: For `COC(=O)CSc1nc2cc(OC)ccc2cc1C#N`, which Potency is on record?
A: Its Potency is inconclusive: 2.51 µM [cytotoxic, full curve].

Q: For `CCc1ccc2oc(-c3cc(NC(=O)c4cc(OC)c(OC)c(OC)c4)ccc3O)nc2c1`, which “activity change, negative = cell killing” value is on record?
A: Its value is inactive: 13.7%.

Q: Which Potency does the source give for `Cc1ccc(NS(=O)(=O)c2ccc3oc(=O)c4ncn(C)c4c3c2)cc1C` here?
A: Its Potency is inconclusive: 31.6 µM [cytotoxic, single point].

Q: With `COc1ccc(OCC(O)Cn2c(=N)n(CCN3CCCCC3)c3ccccc32)cc1` (stereo not given) as the compound, how does the Potency read?
A: Its Potency is “inactive and active: 12.6 µM”.

Q: For `CC(=O)/C=C(\C)Nc1ccc(-c2cnc(-c3ccccc3)o2)cc1`, which Potency is on record?
A: The Potency was inconclusive: 7.94 µM [cytotoxic, partial curve].

Q: Which Potency does the source give for `Cc1ccc(N2C(=O)C3C(C2=O)C2C=CC3C23CC3)cc1` (stereo not given) here?
A: Its Potency is inconclusive: 12.6 µM [cytotoxic, partial curve].

Q: With `COC(=O)c1ccc(OC)c(CSc2nnc(COc3ccccc3)o2)c1` as the compound, how does the “activity change, negative = cell killing” value read?
A: Its value is inactive: -12.7%.

Q: Which Potency does the source give for `Cc1ccc(Nc2nc(N)nc(CSc3nc4ccccc4s3)n2)cc1` here?
A: Its Potency is inconclusive: 12.6 µM [cytotoxic, partial curve].

Q: Which Potency does the source give for `Cc1c2cnn(CC(=O)NCc3ccc(Cl)cc3)c(=O)c2c(C)n1Cc1ccc(F)cc1` here?
A: Its Potency is inconclusive: 15.8 µM [cytotoxic, single point].

Q: Which “activity change, negative = cell killing” value does the source give for `COc1ccc(CCNS(=O)(=O)c2c(C)nc3sccn3c2=O)cc1OC` here?
A: Its value is inactive: -5.05%.

Q: For `Fc1ccccc1CSc1ncnc2c1oc1ccccc12`, which Potency is on record?
A: Its Potency is active: 12.6 µM.

Q: For `COc1cc(O)cc(/C=C/c2ccccc2)c1`, which Potency is on record?
A: Its Potency is inconclusive: 7.94 µM [cytotoxic, partial curve].

Q: With `CC(=O)N1CCOc2cc(S(=O)(=O)NCc3ccccc3Cl)c(Cl)cc21` as the compound, how does the Potency read?
A: The Potency was inconclusive: 5.62 µM [cytotoxic, single point].

Q: With `O=c1[nH]c(SCC2CCCCO2)nc2ccccc12` (stereo not given) as the compound, how does the Potency read?
A: Its Potency is inconclusive: 15.8 µM [cytotoxic, single point].

Q: With `CCn1nnc(NC(=O)c2ccc(C(C)(C)C)cc2)n1` as the compound, how does the Potency read?
A: Its Potency is active: 5.01 µM.

Q: Which activity change, negative = cell killing does the source give for `O=C(Nc1ccc(Br)cc1)c1cc(S(=O)(=O)NC2CCCC2)ccc1F` here?
A: The activity change, negative = cell killing was inconclusive: -36.9% [cytotoxic].

Q: For `CCN(c1ccccc1)S(=O)(=O)c1nnc(NC(=O)C2CCCCC2)s1`, which Potency is on record?
A: The Potency was inconclusive: 7.94 µM [cytotoxic, partial curve].

Q: With `CCCSc1nc2c(cnn2-c2ccccc2)c(=O)[nH]1` as the compound, how does the “activity change, negative = cell killing” value read?
A: The value was inactive: 10.3%.

Q: For `O=C1C(C=NCCCN2CCCC2=O)=C(O)c2ccccc21`, which Potency is on record?
A: Its Potency is inconclusive: 20 µM [cytotoxic, partial curve].

Q: Which Potency does the source give for `c1ccc(-c2cccc(N3CCCC4(CCNCC4)C3)c2)cc1` here?
A: The Potency was active: 12.6 µM.

Q: With `CCOC(=O)Cc1ccc(NC(=O)NC(C)c2c(-n3cccc3)sc(C)c2C)cc1` (stereo not given) as the compound, how does the “activity change, negative = cell killing” value read?
A: The value was inactive: -18%.

Q: With `Cc1cc2oc(=O)c(CC(=O)O)c(C)c2c2occ(-c3ccccc3)c12` as the compound, how does the Potency read?
A: Its Potency is inconclusive: 12.6 µM [cytotoxic, single point].

Q: For `COc1ccc(CCN2C(=O)N(c3cccc(OC)c3)C(=O)C2CC(=O)Nc2ccccc2)cc1` (stereo not given), which Potency is on record?
A: The Potency was inconclusive: 0.251 µM [cytotoxic, full curve, poor fit].

Q: Which “activity change, negative = cell killing” value does the source give for `COc1cc(-n2c(=O)c3ccccc3n(Cc3cccc(Cl)c3)c2=O)cc(OC)c1OC` here?
A: The value was inactive: -21.6%.

Q: With `Cc1ccc2nc(-c3cccc(NC(=O)c4ccco4)c3)[nH]c2c1` as the compound, how does the Potency read?
A: The Potency was inconclusive: 10 µM [cytotoxic, partial curve].

Q: With `COc1ccc2c(c1)c1c(c(=O)n(CCc3ccccc3)c(=O)n1Cc1cccc(F)c1)n2C` as the compound, how does the activity change, negative = cell killing read?
A: The activity change, negative = cell killing was inconclusive: -31% [cytotoxic].

Q: With `COc1ccc(Cn2c(CO)cnc2SCc2ccc(C)cc2)cc1` as the compound, how does the “activity change, negative = cell killing” value read?
A: Its value is inactive: -25%.

Q: With `CCc1ccc(-c2cn3nc(CC)sc3n2)cc1` as the compound, how does the Potency read?
A: Its Potency is active: 6.31 µM.

Q: Which Potency does the source give for `COc1ccc(-c2nnc(SC(C)C(=O)Nc3ccc4c(c3)OCCO4)o2)cc1` (stereo not given) here?
A: Its Potency is active: 12.6 µM.

Q: With `Cc1ccc(Nc2nc3nonc3[nH]c2=O)cc1` as the compound, how does the Potency read?
A: The Potency was inconclusive: 12.6 µM [cytotoxic, single point].

Q: Which Potency does the source give for `COc1ccccc1-c1nnc(NC(C)=O)s1` here?
A: Its Potency is inconclusive: 12.6 µM [cytotoxic, single point].

Q: Which Potency does the source give for `CCOc1ccc(/C=C/C(=O)Nc2ccc3nc(N(CC)CC)cc(C)c3c2)cc1OC` here?
A: Its Potency is inconclusive: 3.98 µM [cytotoxic, single point].

Q: For `c1cn2cc(-c3ccc4c(c3)OCO4)nc2s1`, which Potency is on record?
A: Its Potency is active: 12.6 µM.

Q: With `CCc1ccc(-n2nc(CO)c(C(=O)NC)n2)cc1` as the compound, how does the Potency read?
A: The Potency was active: 15.8 µM.

Q: Which Potency does the source give for `CCOc1ccc(NC(=O)Cn2nnc(-c3nc(-c4ccncc4)no3)c2N)cc1` here?
A: The Potency was inconclusive: 0.0141 µM [cytotoxic, partial curve, poor fit].

Q: For `CC1C(=O)CCC2[C@]1(C)CCC1[C@]2(C)CC[C@@]2(C)C3CC(C)(C)CC[C@]3(C)CC[C@@]12C` (stereo not given in full), which “activity change, negative = cell killing” value is on record?
A: Its value is inactive: -1.51%.

Q: For `Cc1ccc2nc(-c3ccc(NC(=O)COc4ccc(Br)cc4Br)cc3)sc2c1`, which Potency is on record?
A: Its Potency is inconclusive: 15.8 µM [cytotoxic, partial curve].
